In all, about 110,000 compounds went through this assay and about 230 (0.21%) showed an effect of 50% or more. The list shows a part of the results.
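Also: 30 min substrate incubation versus DMSO and 10 µM JCP410 controls.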

Sequence of DPAP1 (Q8IIJ9 whole entry, looked up): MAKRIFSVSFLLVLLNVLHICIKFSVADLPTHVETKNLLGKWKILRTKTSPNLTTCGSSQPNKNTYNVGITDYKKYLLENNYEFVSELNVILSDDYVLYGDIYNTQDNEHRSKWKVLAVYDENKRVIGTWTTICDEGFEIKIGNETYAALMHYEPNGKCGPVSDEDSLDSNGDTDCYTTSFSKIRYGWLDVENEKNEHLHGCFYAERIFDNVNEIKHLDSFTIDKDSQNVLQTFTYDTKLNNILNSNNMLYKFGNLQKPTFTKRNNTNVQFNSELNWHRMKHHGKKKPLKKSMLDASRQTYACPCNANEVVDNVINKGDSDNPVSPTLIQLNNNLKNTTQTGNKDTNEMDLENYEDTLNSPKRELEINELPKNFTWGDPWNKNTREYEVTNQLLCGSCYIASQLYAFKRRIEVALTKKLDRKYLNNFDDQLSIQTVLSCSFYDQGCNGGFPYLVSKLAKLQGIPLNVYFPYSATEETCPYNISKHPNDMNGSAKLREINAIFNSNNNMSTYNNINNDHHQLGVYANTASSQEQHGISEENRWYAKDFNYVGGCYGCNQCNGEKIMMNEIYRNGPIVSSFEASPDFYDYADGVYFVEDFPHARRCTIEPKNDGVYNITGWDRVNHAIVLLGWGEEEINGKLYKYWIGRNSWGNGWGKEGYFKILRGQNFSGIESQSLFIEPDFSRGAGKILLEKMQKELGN

The assay addresses DPAP1 (Plasmodium falciparum, UniProt Q8IIJ9). Nature of the assay: primary screen, percent inhibition; read by cleavage of a fluorogenic dipeptide substrate; higher = more effect of the substance. Also noted: species or system P. falciparum D10 trophozoite lysates; single well.
Regarding `COc1ccccc1Oc1ccc(N/C=C2/CCCCC2=O)cc1`, the “% Inhibition @ 10 uM” value was 3.99%. The figure for `CCn1cc(CNC(=O)C2C3CCC(C3)C2C(=O)O)cn1` (stereo not shown) is 2.7%.

For the molecule `COc1ccc(CCC2NCCn3cccc32)cc1OC` (stereo not shown), the “% Inhibition @ 10 uM” value is given as -0.128%. For `Cc1ccc(C)c(Cn2nnc(C(=O)NCc3ccc(F)cc3)c2N)c1`, the “% Inhibition @ 10 uM” value was 1.26%.

Take `N#C/C(=C/c1cccc(C(F)(F)F)c1)C(=O)Nc1ccc(Cl)cc1`: the “% Inhibition @ 10 uM” value is on record as -1.32%.

Consider `CCCNC(=O)CCc1cn(Cc2ccc(F)cc2)c2ccccc12`, for which the “% Inhibition @ 10 uM” value is listed as -0.822%.

Consider `Cc1cccc(C(=N)NOC(=O)COc2cc(C)c(Cl)c(C)c2)c1`, for which the “% Inhibition @ 10 uM” value came out at 2.03%.

For the molecule `O=C(CSCc1cnn(-c2ccccc2)c1-n1cccc1)NC1CCN(Cc2ccccc2)CC1`, the “% Inhibition @ 10 uM” value is -1.08%. In the case of `Cc1cc(Cl)nc(Cl)c1C(=O)NCc1ccc(Cl)cc1` it was -0.597%; in that of `O=C(CSc1ccc(Cl)cc1)NCCSc1nc2ccccc2s1`, -2.39%. With `CCOC(=O)N1CCC(NC(=O)C2CCN(C(=O)c3cc4sccc4n3CC)CC2)CC1`, the “% Inhibition @ 10 uM” value was 4%. In the case of `Cc1c2cnn(CC(=O)N3CCN(c4ccccn4)CC3)c(=O)c2c(C)n1Cc1ccccc1F` it was 1.22%. The figure for `O=C(O)CSc1n[nH]c(-c2ccncc2)n1` is -7.18%; for `CC1CCN(c2nc3ccc(C(=O)NCc4cccnc4)cc3s2)CC1` it is -2.37%; for `CCC(CC)NCc1cc(Br)c(OC)cc1OC` it is -1.56%.

As to `CCOc1ccc(-n2nnc(-c3nc(-c4ccncc4)no3)c2N)cc1`, the “% Inhibition @ 10 uM” value is reported as 5.22%. Consider `CCOC(=O)c1c(CC(C)C)csc1NC(=O)c1ccccc1F`, for which the “% Inhibition @ 10 uM” value is recorded as -3.98%.

Regarding `O=C(Nc1ccc(O)cc1)c1scc2c1CCCC2`, the “% Inhibition @ 10 uM” value is reported as -3.41%. The figure for `Cc1ccc(C(NC(N)=O)c2cccc(C)c2)cc1` (stereo not shown) is 4.61%; for `Cc1cc(=O)n2nc(N(C)CC(=O)NCc3ccccc3Cl)sc2n1` it is -2%. The figure for `Cc1ccc(CN(Cc2ccccc2)C(=S)NCC(=O)N2CCC3(CC2)OCCO3)o1` is -2.14%. `Cc1ccccc1S(=O)(=O)Nc1ccc(C(=O)c2ccccc2)cc1`: the “% Inhibition @ 10 uM” value is on record as -0.872%. The figure for `Cn1c(SCc2ccc(Cl)cc2)nc(=O)c2c1NC(=O)CC2c1cccc(O)c1` (stereo not shown) is 3.84%; for `CCN(CC)C(=O)c1sc2nc3c(cc2c1N)C(=O)CCC3` it is -4.39%; for `O=C(c1cc2n(n1)C(C(F)(F)F)CC(c1ccco1)N2)N1CCN(c2ccccn2)CC1` (stereo not shown) it is -2.75%. Consider `CC(C)c1ccc(/C=C/C(=O)Nc2nc3ccc(S(C)(=O)=O)cc3s2)cc1`, for which the “% Inhibition @ 10 uM” value turned out to be 1.96%. In the case of `Cc1ccc2c(c1)C1NC(=S)N(CCc3ccccc3)C(C)(O2)C1C(=O)N(C)C` (stereo not shown) it was -9.18%. The figure for `COc1ccc(OC)c(NC(=O)c2ccc(S(=O)(=O)N3CCCCC3C)cc2)c1` (stereo not shown) is 13.5%; for `COC(=O)c1c(NC(=O)c2cc(=O)c3ccccc3o2)sc(C(C)=O)c1C` it is 0.248%; for `O=C(c1cccnc1)N1CCN(c2ccc3ccccc3n2)CC1` it is 0.266%. In the case of `CCOc1ccc(C2=C/C(=C/c3ccc(Br)o3)C(=O)O2)cc1` it was -1.92%. With `CC(=O)c1cccc(N2C(=O)C3C4CCC(C4=C(C)C)C3C2=O)c1` (stereo not shown), the “% Inhibition @ 10 uM” value came to 4.07%. The figure for `CC(Oc1ccccc1F)C(=O)N(Cc1ccc(N(C)C)cc1)C1CCS(=O)(=O)C1` (stereo not shown) is 1.34%; for `COc1ccc(S(=O)(=O)Cc2ccc(C(=O)NCc3ccc(Cl)cc3)o2)cc1` it is 5.34%. The figure for `O=C(CC1(Cc2ccc(Cl)cc2)C(=O)c2ccccc2C1=O)c1ccccc1` is -7.98%; for `CC/N=C1/SC(CC(=O)Nc2ccccc2CC)C(=O)N1CC` (stereo not shown) it is -1.16%. For `CC(=O)Cc1ccc2cccc(O)c2n1`, the “% Inhibition @ 10 uM” value came out at 1.7%. On to `N#Cc1ccccc1CSc1nc2ccccc2s1`, for which the “% Inhibition @ 10 uM” value came out at 4.89%. As for `O=C(O)CCCC(=O)N1CCN(c2cccc(Cl)c2)CC1`, the “% Inhibition @ 10 uM” value was found to be 2.32%. As to `CCc1ccc(OCC(=O)NCc2nc(-c3ccc(C)cc3)no2)c(Br)c1`, the “% Inhibition @ 10 uM” value is given as -8.69%. The figure for `CCN(CC)C(=O)CSc1nc(C2CC2)cc(C(F)(F)F)c1C#N` is 3.99%; for `O=C(CCc1nc2cccnc2n1Cc1ccccc1)NCCc1ccc(Cl)cc1` it is -1.08%. Take `CC(Cc1ccccc1F)N1CCCCC1CO` (stereo not shown): the “% Inhibition @ 10 uM” value is reported as 6.17%. The figure for `Cc1ccccc1OCC(=O)Nc1ccc(S(=O)(=O)N2CCCCCC2)cc1` is 1.7%; for `N#CC1=C(SCC(=O)NCc2ccccc2)N=C2CCCC(O)=C2C1c1ccco1` (stereo not shown) it is 3.79%. For `Nc1ncc(Br)cc1S(=O)(=O)NCc1cccnc1`, the “% Inhibition @ 10 uM” value came out at 4.61%. In the case of `CC1(C)CC(=O)C2=C(C1)N(c1nc[nH]n1)C(N)=C(C#N)C2c1ccc2c(c1)OCO2` (stereo not shown) it was 2.38%; in that of `Cc1noc2ncnc(NCc3ccc4c(c3)OCO4)c12`, 1.23%; in that of `CC(C)N1CCN(C(=O)c2ccccc2)CC1`, -7.18%. The figure for `Cc1nc2ccccc2c2c1C(=O)N(CCC1=CCCCC1)C2=O` is -2.49%; for `CCOc1c(NC(=O)[C@H](CC(C)C)NC(=O)[C@H](CC(C)C)NC(=O)[C@H](CC(C)C)NC(=O)OCc2ccccc2)c(=O)c1=O` it is -8.36%. The figure for `Cc1ccn2c(=O)c(C(=O)Nc3cccnc3)cnc2c1` is 0.0579%; for `CCCC(=O)Nc1ccc2c(c1)ncn2C(C)(C)C` it is -4.97%; for `CN(C)c1ccc(C(=S)N2CCOCC2)cc1` it is -3%. With `CCCn1c2ccccc2c2cnn(CC(=O)N3CC(C)CC(C)C3)c(=O)c21` (stereo not shown), the “% Inhibition @ 10 uM” value stood at 1.66%.

Take `COc1ccccc1-c1n[nH]c(SCc2ccc(C(=O)O)cc2)n1`: the “% Inhibition @ 10 uM” value is -1.98%. As to `CCOC(=O)/C(C#N)=C/c1ccc(OC)cc1OC`, the “% Inhibition @ 10 uM” value was 9.68%. The figure for `CCc1nn(CC(=O)N2CCN(CC)CC2)c(=O)c2cc3sccc3n12` is 3.2%; for `CC(C)C[C@H](NC(=O)c1ccccc1-c1ccc(C(F)(F)F)cc1)C(=O)NCC#N` it is 17%. The figure for `CC1(C)CC(=O)C(CCC#N)(CCC#N)C(=O)C1` is -4.01%; for `COCCNC(=O)C1CCN(c2nn3c(=O)cc(C)nc3s2)CC1` it is -3.79%; for `Cc1nc(O)c(C#N)c(C)c1CSCc1ccco1` it is 0.343%. Regarding `CCNC(=O)c1c(O)c2ccccc2n(CC)c1=O`, the “% Inhibition @ 10 uM” value was 1%. The figure for `CCC(C)NC(=O)Cn1nc(C)n2c(cc3cc(OC)ccc32)c1=O` (stereo not shown) is -5.32%. Consider `CCC1=NN(C(=O)c2ccc(OC)cc2)C(O)(c2ccccc2)C1` (stereo not shown), for which the “% Inhibition @ 10 uM” value was found to be 3.53%. In the case of `CS(=O)(=O)N(CC(=O)N1CCc2ccccc2C1)c1ccc(Cl)cc1` it was -8.78%; in that of `CN(C)CCOC(=O)C12CC3(C)CC(C)(CC(C)(C3)C1)C2`, -4.23%.

In the case of `Cc1cccc(OCC(=O)Nc2cccc(C#N)c2)c1`, the “% Inhibition @ 10 uM” value is recorded as -2.3%. `COc1ccc(CCNC(=O)CSc2ncnc3sc4c(c23)CCCC4)cc1OC`: the “% Inhibition @ 10 uM” value is 5.59%. On to `COc1ccc(S(=O)(=O)Nc2cc(C)ccn2)cc1`, for which the “% Inhibition @ 10 uM” value worked out at 4.69%. The figure for `CC(=O)C1=C(O)C(=O)N(c2nc3ccccc3s2)C1c1ccccc1F` (stereo not shown) is -3.75%; for `CCc1ccc(CNCc2ccc3c(c2)OCO3)cc1` it is -1.1%.

For the molecule `Cc1nn(S(=O)(=O)c2ccc(Cl)cc2)c(C)c1Sc1ccccc1`, the “% Inhibition @ 10 uM” value stood at 2.55%. Take `Cc1ccc(Nc2nc(Cl)nc(Nc3ccc(C(C)C)cc3)n2)cc1`: the “% Inhibition @ 10 uM” value was 3.53%. In the case of `Cn1ccc(C(=O)N2CCCc3ccccc32)n1` it was -0.622%; in that of `CN1/C(=C\C(=O)c2cccnc2)Sc2ccccc21`, -4.91%; in that of `Cc1ccc(-c2nc(CS(=O)(=O)CC(=O)NCCCN(Cc3ccccc3)C(C)C)c(C)o2)cc1`, -0.354%. Turning to `CC(C)CCn1c(-c2ccco2)nc2ccccc21`, the “% Inhibition @ 10 uM” value stood at 2.73%. The figure for `CCOC(=O)N1CCN(C(=O)CN(c2cccc(OC)c2)S(=O)(=O)c2ccccc2)CC1` is 4.36%; for `CC(=O)c1ccc(N2CCN(Cc3c(C)n(C)n(-c4ccccc4)c3=O)CC2)cc1` it is -1.5%; for `O=C1NC(=O)C(=Cc2ccc(-c3cccc(Cl)c3)o2)C(=O)N1` it is 6.17%.

For `COc1cc2c(cc1OC)C1(CCCC1)CN(C(=O)c1cc(Br)ccc1OC)C2`, the “% Inhibition @ 10 uM” value is recorded as -3.53%.

With `CCCCN(C)c1ncnc2c1sc1nc(N3CCOCC3)c3c(c12)CCCC3`, the “% Inhibition @ 10 uM” value is given as 3.47%. In the case of `COc1ccc(NC(=O)C2CC2)cc1OC` it was -2.48%. In the case of `CCc1c(C)nc2sc3c(=O)[nH]c(=O)[nH]c3c2c1C` it was -1.6%; in that of `CCc1nnc(NC(=O)c2ccc(CN3C(=O)C(C)=C(c4ccc(C)c(C)c4)S3(=O)=O)cc2)s1`, 2.31%. In the case of `CCn1c(/C=C/c2ccc(OC)cc2)nc2ccccc2c1=O` it was -5.23%.

For the molecule `Cc1ccc(NC(=O)c2cc3ccccc3o2)cc1Cl`, the “% Inhibition @ 10 uM” value turned out to be 0.147%. In the case of `O=C(O)c1c[nH]c(=O)[nH]c1=O` it was 0.221%. `O=S(=O)(c1ccc2ccccc2c1)N1CCN(c2ccccc2)CC1`: the “% Inhibition @ 10 uM” value came out at 0.345%. The figure for `Cc1ccc(-c2nn3c(C)nnc3c3ccccc23)cc1S(=O)(=O)NCCN1CCOCC1` is 7.25%; for `CCn1c(=O)sc2cc(Br)ccc21` it is -0.446%; for `Cc1ccc(-n2nc(C)c3c(C)c(CCC(=O)N4CCOCC4)c(C)nc32)cc1C` it is 2.57%. As to `COc1cccc(S(=O)(=O)NCc2ccc(C(=O)Nc3ccc(Cl)c(Cl)c3)cc2)c1`, the “% Inhibition @ 10 uM” value stood at 3.58%. In the case of `COc1cc2c(cc1OC)C(C)N(c1ncnc3c1cnn3-c1cccc(C)c1)CC2` (stereo not shown), the “% Inhibition @ 10 uM” value was found to be 3.04%. In the case of `CC(Oc1ccc(/C=C2/C(=N)N3C(=NC2=O)SN=C3S(C)(=O)=O)cc1)c1ccccc1` (stereo not shown) it was -5.27%; in that of `O=C(CCN1C(=O)c2ccccc2C1=O)NCc1cccnc1`, -5.28%. In the case of `O=C1N=C(N2CCOCC2)S/C1=C\c1ccc(OCc2ccccc2)cc1` it was 0.147%. The figure for `Cc1ccc(C(=O)NC2(C(F)(F)F)C(=O)Nc3c2c(=O)[nH]c(=O)n3-c2ccc(Cl)cc2)cc1` (stereo not shown) is -3.39%. As for `CCN(CC)CCCC(C)Nc1ccnc2cc3ccccc3cc12` (stereo not shown), the “% Inhibition @ 10 uM” value was -3.48%.

The record behind these values is article PMC6919601, “Identification of Plasmodium dipeptidyl aminopeptidase allosteric inhibitors by high throughput screening” (PLoS ONE, 2019).
